This is a noisy data set.
Assay: amyloid nucleation score relative to library mode (yeast Sup35 reporter selection) (log enrichment difference); higher = more amyloid nucleation; sequences are the first 22 residues of the Bri2 peptide extended by up to 12 random residues
Settings: random library (experiment): 1;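 active = nucleation score significantly above 0 at FDR 0.05; inactive = not significantly above 0 or absent from output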
With EASNCFAIRHFENKFAVETLICRFVLRPDRMTRV the amyloid nucleation score was “inactive”. With EASNCFAIRHFENKFAVETLICRFVRLFLTGMVE the amyloid nucleation score was “inactive”. In the case of EASNCFAIRHFENKFAVETLICRFVTSPVIYKHC, the amyloid nucleation score is reported as “inactive”. With EASNCFAIRHFENKFAVETLICRFVWDYVTSELS the amyloid nucleation score was “inactive”. In the case of EASNCFAIRHFENKFAVETLICRFWDSGRRTDRA, the amyloid nucleation score is reported as “inactive”. For EASNCFAIRHFENKFAVETLICRG, the amyloid nucleation score was “inactive”. In the case of EASNCFAIRHFENKFAVETLICRGACALDRRVPW, the amyloid nucleation score is reported as 0.262. With EASNCFAIRHFENKFAVETLICRGAPHYHTTCLR the amyloid nucleation score was 0.531. For EASNCFAIRHFENKFAVETLICRGATP, the amyloid nucleation score was “inactive”. With EASNCFAIRHFENKFAVETLICRGCSWLDLFRGW the amyloid nucleation score was “inactive”. For EASNCFAIRHFENKFAVETLICRGDQMSVREVSV, the amyloid nucleation score was “inactive”. In the case of EASNCFAIRHFENKFAVETLICRGEDRWERSDAA, the amyloid nucleation score is reported as -0.379. In the case of EASNCFAIRHFENKFAVETLICRGEIGQSCESDV, the amyloid nucleation score is reported as “inactive”. With EASNCFAIRHFENKFAVETLICRGEPIGGRHNR the amyloid nucleation score was “inactive”. With EASNCFAIRHFENKFAVETLICRGESYVFAVPCS the amyloid nucleation score was “inactive”. In the case of EASNCFAIRHFENKFAVETLICRGGSSRMKGPGR, the amyloid nucleation score is reported as “inactive”. With EASNCFAIRHFENKFAVETLICRGILSKSNVKSW the amyloid nucleation score was “inactive”. In the case of EASNCFAIRHFENKFAVETLICRGKVPFQEFTTG, the amyloid nucleation score is reported as “inactive”. With EASNCFAIRHFENKFAVETLICRGMWSGCKADLE the amyloid nucleation score was “inactive”. Work on EASNCFAIRHFENKFAVETLICRGNGGPCIYLLW yielded an amyloid nucleation score of -0.171. With EASNCFAIRHFENKFAVETLICRGNGVLLLWCGY the amyloid nucleation score was “inactive”. Sequence EASNCFAIRHFENKFAVETLICRGNRDSRFACDV has an amyloid nucleation score of 0.818. With EASNCFAIRHFENKFAVETLICRGNSATFVSWST the amyloid nucleation score was 2.85. In the case of EASNCFAIRHFENKFAVETLICRGR, the amyloid nucleation score is reported as “inactive”. With EASNCFAIRHFENKFAVETLICRGRGSAVRCAGS the amyloid nucleation score was “inactive”. For EASNCFAIRHFENKFAVETLICRGRIRQCLVSVA, the amyloid nucleation score was “inactive”. With EASNCFAIRHFENKFAVETLICRGRMVTTSCGVR the amyloid nucleation score was “inactive”. For EASNCFAIRHFENKFAVETLICRGRVMTSAAGGW, the amyloid nucleation score was “inactive”. Work on EASNCFAIRHFENKFAVETLICRGRYRLGPGHPL yielded an amyloid nucleation score of 3.83. With EASNCFAIRHFENKFAVETLICRGSGCGWNRFRL the amyloid nucleation score was 1.78. With EASNCFAIRHFENKFAVETLICRGSRSQSARTGM the amyloid nucleation score was “inactive”. With EASNCFAIRHFENKFAVETLICRGSVALLTRESL the amyloid nucleation score was 0.413. With EASNCFAIRHFENKFAVETLICRGTAFLNSMHGG the amyloid nucleation score was 3.47. With EASNCFAIRHFENKFAVETLICRGTEMWQVATLA the amyloid nucleation score was “inactive”. For EASNCFAIRHFENKFAVETLICRGTGRERVICGL, the amyloid nucleation score was “inactive”. Work on EASNCFAIRHFENKFAVETLICRGTGWRELEGWR yielded an amyloid nucleation score of 0.703. In the case of EASNCFAIRHFENKFAVETLICRGTKVLSPLDSA, the amyloid nucleation score is reported as “inactive”. EASNCFAIRHFENKFAVETLICRGVCGWNTDGLR gave an amyloid nucleation score of 3.47. For EASNCFAIRHFENKFAVETLICRGVKFWNDHTVP, the amyloid nucleation score was “inactive”. In the case of EASNCFAIRHFENKFAVETLICRGVLIMVGEWW, the amyloid nucleation score is reported as -0.617. For EASNCFAIRHFENKFAVETLICRGWLRVTSSWTW, the amyloid nucleation score was “inactive”. EASNCFAIRHFENKFAVETLICRGWYRWVHWGML gave an amyloid nucleation score of 0.796. With EASNCFAIRHFENKFAVETLICRGYVGDMVRKVW the amyloid nucleation score was “inactive”. In the case of EASNCFAIRHFENKFAVETLICRH, the amyloid nucleation score is reported as “inactive”.

Same assay, conditions: random library (experiment): 2
With EASNCFAIRHFENKFAVETLICRFVGGICKGWLA the amyloid nucleation score was “inactive”. In the case of EASNCFAIRHFENKFAVETLICRFVIRRWGFQWW, the amyloid nucleation score is reported as “inactive”. With EASNCFAIRHFENKFAVETLICRFVISCVNWLSW the amyloid nucleation score was “inactive”. With EASNCFAIRHFENKFAVETLICRFWIYWSWTCLS the amyloid nucleation score was “inactive”. With EASNCFAIRHFENKFAVETLICRFWWM the amyloid nucleation score was “inactive”. For EASNCFAIRHFENKFAVETLICRGALPPSNTMDL, the amyloid nucleation score was 2.37. For EASNCFAIRHFENKFAVETLICRGDPYRASCPYA, the amyloid nucleation score was “inactive”. With EASNCFAIRHFENKFAVETLICRGELEEMWEELK the amyloid nucleation score was “inactive”. For EASNCFAIRHFENKFAVETLICRGFIKVWAWMLV, the amyloid nucleation score was “inactive”. In the case of EASNCFAIRHFENKFAVETLICRGGV, the amyloid nucleation score is reported as “inactive”. In the case of EASNCFAIRHFENKFAVETLICRGGVYWTIKRRG, the amyloid nucleation score is reported as “inactive”. With EASNCFAIRHFENKFAVETLICRGLD the amyloid nucleation score was “inactive”. For EASNCFAIRHFENKFAVETLICRGLSPRFCDESR, the amyloid nucleation score was “inactive”. With EASNCFAIRHFENKFAVETLICRGMDENRVTVCE the amyloid nucleation score was “inactive”. In the case of EASNCFAIRHFENKFAVETLICRGMVCEGVGWCG, the amyloid nucleation score is reported as “inactive”. EASNCFAIRHFENKFAVETLICRGQCRYSGSSSV gave an amyloid nucleation score of -0.0296. In the case of EASNCFAIRHFENKFAVETLICRGQMIKENCRFR, the amyloid nucleation score is reported as “inactive”. In the case of EASNCFAIRHFENKFAVETLICRGST, the amyloid nucleation score is reported as “inactive”. In the case of EASNCFAIRHFENKFAVETLICRGTMLSVVSSHE, the amyloid nucleation score is reported as -0.445. In the case of EASNCFAIRHFENKFAVETLICRGVVLQLRKHYL, the amyloid nucleation score is reported as “inactive”. For EASNCFAIRHFENKFAVETLICRGWSNDWPWI, the amyloid nucleation score was “inactive”. For EASNCFAIRHFENKFAVETLICRGWVLSVLYEEG, the amyloid nucleation score was 0.673. For EASNCFAIRHFENKFAVETLICRGYLSLMWCDWS, the amyloid nucleation score was “inactive”.

Same assay, conditions: random library (experiment): 3
In the case of EASNCFAIRHFENKFAVETLICRFWQGFWHENSA, the amyloid nucleation score is reported as “inactive”. In the case of EASNCFAIRHFENKFAVETLICRFWQQWLAGGEV, the amyloid nucleation score is reported as “inactive”. With EASNCFAIRHFENKFAVETLICRGCKKVGKILDT the amyloid nucleation score was “inactive”. In the case of EASNCFAIRHFENKFAVETLICRGCPVYASCRLA, the amyloid nucleation score is reported as “inactive”. With EASNCFAIRHFENKFAVETLICRGDDGWALRSTY the amyloid nucleation score was “inactive”. EASNCFAIRHFENKFAVETLICRGEMGARRGRSL showed an amyloid nucleation score of -0.0945. For EASNCFAIRHFENKFAVETLICRGERESSAVGEG, the amyloid nucleation score was “inactive”. For EASNCFAIRHFENKFAVETLICRGLSRC, the amyloid nucleation score was “inactive”. In the case of EASNCFAIRHFENKFAVETLICRGMQNGMPLANR, the amyloid nucleation score is reported as “inactive”. In the case of EASNCFAIRHFENKFAVETLICRGNQYWRLCRRR, the amyloid nucleation score is reported as -0.0441. EASNCFAIRHFENKFAVETLICRGPFISCAAGPD gave an amyloid nucleation score of 4.92. In the case of EASNCFAIRHFENKFAVETLICRGRSTASAGPSM, the amyloid nucleation score is reported as -0.0945. For EASNCFAIRHFENKFAVETLICRGRTSYPMHLRR, the amyloid nucleation score was “inactive”. In the case of EASNCFAIRHFENKFAVETLICRGSNVWT, the amyloid nucleation score is reported as “inactive”. Work on EASNCFAIRHFENKFAVETLICRGTRCKCESVAR yielded an amyloid nucleation score of 3.22. For EASNCFAIRHFENKFAVETLICRGVFRVGQSQYR, the amyloid nucleation score was 2.47. In the case of EASNCFAIRHFENKFAVETLICRGVWSVKSTVRE, the amyloid nucleation score is reported as 2.29. EASNCFAIRHFENKFAVETLICRGWSQSRIRCRG showed an amyloid nucleation score of -0.142.
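Further: [psi-pin-] Saccharomyces cerevisiae expressing SupN fusions, induced by 100 µM Cu2SO4, selected 7 d at 30 °C without adenine and uracil, scored by deep sequencing of output versus input.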
